The supplement of paper PMC4967469
pIC50: −log10 of the molar value. IC50 is the fitted dose that halves viability relative to control wells, and lower means more sensitive; where the fit passes the top or lowest dose, that dose stands as a limit. AUC is the area under the same curve over the 256-fold range up to the top dose, as a fraction; it is 1 without any effect and falls as sensitivity rises. For some of these results: An inferred top dose is not printed in the source and was worked back from the curve model. For some of these results: Drugs with an entry number were screened twice under separate entries, and the two screens often disagree.

Columns and labels:
Test in all cases: Viability of human cancer cell lines after 72 h of drug (GDSC screen)
Pazopanib = compound: Cc1ccc(Nc2nccc(N(C)c3ccc4c(C)n(C)nc4c3)n2)cc1S(N)(=O)=O [Pazopanib]; conditions: top dose 8 µM
Method: (§1)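 Human cancer cell lines in 384-well plates, medium with 10% serum, drug for 72 h over a 256-fold dose range (nine 2-fold or five 4-fold steps up to the top dose). Adherent lines were fixed and stained with the nucleic acid dye Syto60, suspension lines read with resazurin; signal relative to control wells, capped at 0 and 100%. One two-parameter sigmoid per drug and line, fitted in a mixed model over all curves with the slope shared within a line.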

CEP-701 = compound: C[C@]12O[C@H](C[C@]1(O)CO)n1c3ccccc3c3c4c(c5c6ccccc6n2c5c31)CNC4=O [CEP-701]; conditions: top dose 2 µM; top dose inferred
Method: as §1

AR-42 = compound: CC(C)[C@H](C(=O)Nc1ccc(C(=O)NO)cc1)c1ccccc1 [AR-42]; conditions: top dose 5.12 µM; top dose inferred
Method: as §1

GDC0941 = compound: CS(=O)(=O)N1CCN(Cc2cc3nc(-c4cccc5[nH]ncc45)nc(N4CCOCC4)c3s2)CC1 [GDC0941]; conditions: top dose 4 µM; screen: GDSC drug entry 1527; top dose inferred
Method: as §1

8505C (thyroid, adherent)
AUC (Pazopanib): 0.952
pIC50 (Pazopanib): < 5.10
AUC (CEP-701): 0.672
pIC50 (CEP-701): 6.41
AUC (AR-42): 0.61
pIC50 (AR-42): 6.18

A704 (kidney, adherent)
AUC (GDC0941): 0.749
pIC50 (GDC0941): 5.90
AUC (Pazopanib): 0.649
pIC50 (Pazopanib): 5.90
AUC (CEP-701): 0.759
pIC50 (CEP-701): 6.17

CAPAN-1 (pancreas, adherent)
AUC (Pazopanib): 0.986
pIC50 (Pazopanib): < 5.10
AUC (CEP-701): 0.716
pIC50 (CEP-701): 6.26
AUC (AR-42): 0.708
pIC50 (AR-42): 5.88

Caov-4 (ovary, adherent)
AUC (GDC0941): 0.873
pIC50 (GDC0941): < 5.40
AUC (Pazopanib): 0.915
pIC50 (Pazopanib): < 5.10
AUC (CEP-701): 0.951
pIC50 (CEP-701): < 5.70

DIFI (large intestine, adherent)
AUC (GDC0941): 0.608
pIC50 (GDC0941): 6.30
AUC (CEP-701): 0.748
pIC50 (CEP-701): 6.17

DOK (head and neck, adherent)
AUC (Pazopanib): 0.945
pIC50 (Pazopanib): < 5.10
AUC (CEP-701): 0.542
pIC50 (CEP-701): 6.76
AUC (AR-42): 0.754
pIC50 (AR-42): 5.59

DoTc2-4510 (cervix, adherent)
AUC (Pazopanib): 0.901
pIC50 (Pazopanib): < 5.10
AUC (CEP-701): 0.827
pIC50 (CEP-701): 5.95
AUC (AR-42): 0.635
pIC50 (AR-42): 6.13

EMC-BAC-1 (lung adenocarcinoma, adherent)
AUC (GDC0941): 0.787
pIC50 (GDC0941): 5.70
AUC (CEP-701): 0.785
pIC50 (CEP-701): 6.01
AUC (AR-42): 0.682
pIC50 (AR-42): 5.95

EMC-BAC-2 (lung adenocarcinoma, adherent)
AUC (GDC0941): 0.813
pIC50 (GDC0941): 5.57
AUC (CEP-701): 0.486
pIC50 (CEP-701): 6.94
AUC (AR-42): 0.544
pIC50 (AR-42): 6.36

FADU (head and neck, adherent)
AUC (Pazopanib): 0.952
pIC50 (Pazopanib): < 5.10
AUC (CEP-701): 0.606
pIC50 (CEP-701): 6.62
AUC (AR-42): 0.801
pIC50 (AR-42): 5.62

HCC1143 (breast, adherent)
AUC (Pazopanib): 0.918
pIC50 (Pazopanib): < 5.10
AUC (CEP-701): 0.797
pIC50 (CEP-701): 5.85
AUC (AR-42): 0.712
pIC50 (AR-42): 5.79

HCC-366 (non-small cell lung carcinoma, adherent)
AUC (GDC0941): 0.745
pIC50 (GDC0941): 5.89
AUC (CEP-701): 0.938
pIC50 (CEP-701): < 5.70

HPAF-II (pancreas, adherent)
AUC (GDC0941): 0.696
pIC50 (GDC0941): 5.97
AUC (Pazopanib): 0.902
pIC50 (Pazopanib): < 5.10
AUC (AR-42): 0.802
pIC50 (AR-42): 5.46

HSC-3 (head and neck, adherent)
AUC (GDC0941): 0.52
pIC50 (GDC0941): 6.55
AUC (Pazopanib): 0.988
pIC50 (Pazopanib): < 5.10
AUC (AR-42): 0.798
pIC50 (AR-42): 5.69

HTC-C3 (thyroid, adherent)
AUC (GDC0941): 0.724
pIC50 (GDC0941): 5.93
AUC (Pazopanib): 0.969
pIC50 (Pazopanib): < 5.10
AUC (AR-42): 0.453
pIC50 (AR-42): 6.63

Hey (ovary, adherent)
AUC (GDC0941): 0.774
pIC50 (GDC0941): 5.83
AUC (CEP-701): 0.464
pIC50 (CEP-701): 7.00
AUC (AR-42): 0.472
pIC50 (AR-42): 6.57

Hs940-T (melanoma, adherent)
AUC (GDC0941): 0.899
pIC50 (GDC0941): < 5.40
AUC (Pazopanib): 0.605
pIC50 (Pazopanib): 5.98
AUC (AR-42): 0.76
pIC50 (AR-42): 5.66

IM-95 (stomach, adherent)
AUC (GDC0941): 0.873
pIC50 (GDC0941): < 5.40
AUC (Pazopanib): 0.899
pIC50 (Pazopanib): < 5.10
AUC (AR-42): 0.549
pIC50 (AR-42): 6.36

J82 (bladder, adherent)
AUC (GDC0941): 0.755
pIC50 (GDC0941): 5.87
AUC (Pazopanib): 0.725
pIC50 (Pazopanib): 5.66
AUC (AR-42): 0.895
pIC50 (AR-42): < 5.29

KG-1 (acute myeloid leukaemia, suspension)
AUC (GDC0941): 0.902
pIC50 (GDC0941): < 5.40
AUC (Pazopanib): 0.584
pIC50 (Pazopanib): 6.08
AUC (AR-42): 0.339
pIC50 (AR-42): 6.92

KNS-62 (lung squamous cell carcinoma, adherent)
AUC (GDC0941): 0.782
pIC50 (GDC0941): 5.60
AUC (CEP-701): 0.851
pIC50 (CEP-701): < 5.70

KOSC-2 (head and neck, adherent)
AUC (GDC0941): 0.746
pIC50 (GDC0941): 5.88
AUC (Pazopanib): 0.985
pIC50 (Pazopanib): < 5.10
AUC (AR-42): 0.528
pIC50 (AR-42): 6.42

KP-4 (pancreas, adherent)
AUC (GDC0941): 0.823
pIC50 (GDC0941): 5.65
AUC (Pazopanib): 0.974
pIC50 (Pazopanib): < 5.10
AUC (AR-42): 0.583
pIC50 (AR-42): 6.27

KYSE-180 (oesophagus, adherent)
AUC (GDC0941): 0.869
pIC50 (GDC0941): 5.47
AUC (Pazopanib): 0.978
pIC50 (Pazopanib): < 5.10
AUC (AR-42): 0.501
pIC50 (AR-42): 6.49

KYSE-270 (oesophagus, adherent)
AUC (GDC0941): 0.849
pIC50 (GDC0941): 5.63
AUC (Pazopanib): 0.936
pIC50 (Pazopanib): < 5.10
AUC (AR-42): 0.74
pIC50 (AR-42): 5.86

LU-99A (large cell lung carcinoma, adherent)
AUC (GDC0941): 0.619
pIC50 (GDC0941): 6.28
AUC (Pazopanib): 0.97
pIC50 (Pazopanib): < 5.10
AUC (AR-42): 0.807
pIC50 (AR-42): 5.59

MDA-MB-157 (breast, adherent)
AUC (GDC0941): 0.918
pIC50 (GDC0941): < 5.40
AUC (Pazopanib): 0.947
pIC50 (Pazopanib): < 5.10
AUC (AR-42): 0.686
pIC50 (AR-42): 5.97

MFE-319 (endometrium, adherent)
AUC (GDC0941): 0.864
pIC50 (GDC0941): 5.48
AUC (Pazopanib): 0.896
pIC50 (Pazopanib): < 5.10
AUC (AR-42): 0.922
pIC50 (AR-42): < 5.29

MKN1 (stomach, adherent)
AUC (GDC0941): 0.647
pIC50 (GDC0941): 6.18
AUC (Pazopanib): 0.918
pIC50 (Pazopanib): < 5.10
AUC (AR-42): 0.719
pIC50 (AR-42): 5.86

ML-1 (thyroid, adherent)
AUC (GDC0941): 0.904
pIC50 (GDC0941): < 5.40
AUC (Pazopanib): 0.635
pIC50 (Pazopanib): 5.90
AUC (AR-42): 0.509
pIC50 (AR-42): 6.47

MOLT-13 (T-cell lymphoblastic leukaemia, suspension)
AUC (GDC0941): 0.919
pIC50 (GDC0941): < 5.40
AUC (CEP-701): 0.683
pIC50 (CEP-701): 6.42
AUC (AR-42): 0.116
pIC50 (AR-42): 7.63

NCC010 (kidney, adherent)
AUC (GDC0941): 0.746
pIC50 (GDC0941): 5.87
AUC (CEP-701): 0.697
pIC50 (CEP-701): 6.33

NCC021 (kidney, adherent)
AUC (GDC0941): 0.748
pIC50 (GDC0941): 5.83
AUC (CEP-701): 0.892
pIC50 (CEP-701): < 5.70
AUC (AR-42): 0.498
pIC50 (AR-42): 6.50

NCI-H196 (small cell lung carcinoma, adherent)
AUC (GDC0941): 0.896
pIC50 (GDC0941): < 5.40
AUC (Pazopanib): 0.985
pIC50 (Pazopanib): < 5.10
AUC (AR-42): 0.417
pIC50 (AR-42): 6.73

NCI-H1915 (large cell lung carcinoma, adherent)
AUC (GDC0941): 0.964
pIC50 (GDC0941): < 5.40
AUC (Pazopanib): 0.943
pIC50 (Pazopanib): < 5.10
AUC (AR-42): 0.521
pIC50 (AR-42): 6.44

NCI-H2085 (lung adenocarcinoma, adherent)
AUC (GDC0941): 0.799
pIC50 (GDC0941): 5.68
AUC (Pazopanib): 0.974
pIC50 (Pazopanib): < 5.10
AUC (AR-42): 0.795
pIC50 (AR-42): 5.58

NCI-H2170 (lung squamous cell carcinoma, adherent)
AUC (GDC0941): 0.882
pIC50 (GDC0941): < 5.40
AUC (Pazopanib): 0.88
pIC50 (Pazopanib): < 5.10
AUC (AR-42): 0.79
pIC50 (AR-42): 5.62

NCI-H2228 (lung adenocarcinoma, adherent)
AUC (GDC0941): 0.662
pIC50 (GDC0941): 6.05
AUC (Pazopanib): 0.976
pIC50 (Pazopanib): < 5.10
AUC (AR-42): 0.835
pIC50 (AR-42): < 5.29
